Our source for the binding result and Kd values is article PMC10883291 (Cancer Research Communications, 2024).

In general, Kd refers to the constant that tells how readily two partners part at equilibrium.

In test [1] the target is T1, cynomolgus SIRPα on CHO-K1 cells (Macaca fascicularis, UniProt A0A2K5VYQ9).
T1 construct: SIRPα, cynomolgus monkey, overexpressed on CHO-K1 cells; also called macaque SIRPα; cynomolgus monkey SIRPα; source: CHO-K1, overexpressed, on cells
Description: flow cytometry on cells; direct staining: human and cynomolgus SIRPα-overexpressing CHO-K1 cells incubated with directly conjugated BMS-986351-AF647; gMFI against antibody concentration. Conditions: one partner purified. (Flow cytometry measures light scatter and fluorescence of single cells or particles in a stream.)

The target of test [2] is T2, recombinant SIRPγ extracellular domain (Homo sapiens, UniProt Q9P1W8).
T2 construct: SIRPγ, recombinant extracellular domain
Description: SPR; Biacore T200; purified BMS-986351 captured on a ProA sensor chip; recombinant SIRPα, SIRPβ or SIRPγ injected in 5-fold dilutions (0.08–50 nmol/L), signal over 900 seconds; regeneration with 10 mmol/L glycine pH 1.5; 1:1 Langmuir model. Conditions: both partners purified. For orientation: Surface plasmon resonance follows binding to a sensor surface in real time, without labels.

The target in test [3] is T3, recombinant SIRPβ extracellular domain (Homo sapiens, UniProt O00241).
T3 construct: SIRPβ, recombinant extracellular domain
Described as above. Conditions: both partners purified.

The target of test [4] is T4, rat SIRPα on CHO-K1 cells (Rattus norvegicus, UniProt P97710).
T4 construct: SIRPα, rat, overexpressed on CHO-K1 cells; also called rodent SIRPα (rat); source: CHO-K1, overexpressed, on cells
The test is described as follows: flow cytometry on cells; indirect staining: rat and mouse SIRPα-overexpressing CHO-K1 cells, BMS-986351 detected with anti-human AF647 secondary antibodies; gMFI against antibody concentration. Conditions: one partner purified.

Test [5] addresses T5, mouse SIRPα on CHO-K1 cells (Mus musculus, strain , UniProt P97797).
T5 construct: SIRPα, mouse, overexpressed on CHO-K1 cells; also called rodent SIRPα (mouse); source: CHO-K1, overexpressed, on cells
Described as above. Conditions: one partner purified.

B1: BMS-986351-AF647 (antibody, V domains shown)
VH: QVQLVQSGAEVKKPGASVKVSCKASGYTFRGYGISWVRQAPGQGLEWMGWISAYGGETNYAQKLQGRVTMTTDTSTSTAYMELRSLRSDDTAVYYCAREAGSSWYDFDLWGRGTLVTVSS
VL: DIQMTQSPSSVSASVGDRVTITCRASQGISSWLAWYQQKPGKAPKLLIYAASNLQSGVPSRFSGSGSGTDFTLTISSLQPEDFATYYCQQGASFPITFGGGTKVEIK
notes: as the Fab part of the heavy chain of m1; human IgG1 Fc with lysine to alanine at position 322, as in m1; as the light chain of m1; m1 labelled with AF647 (Thermo Fisher Scientific) for direct staining of cells
On to B1, for which, in test [1], the binding result is “binds”.

B2: BMS-986351 (antibody, V domains shown)
VH: B1 VH
VL: B1 VL
notes: Fab part of the heavy chain (variable domain and CH1); human IgG1 Fc with lysine to alanine at position 322; light chain; also called anti-SIRPα IgG1 mAb; lead mAb
As to B2, the results for the Kd in test [2] and in test [3] were 0.0502 nM and 0.205 nM, respectively. Further, the binding result in test [4] and in test [5] was “no binding” throughout.
